Measurements as given in paper PMC5892938.
This is one part of the list. The exact form of the protein is not confirmed.

target: GST-SBP-ILF3 (Homo sapiens) (UniProt Q12906); assay: targeted RNA Bind-n-Seq; conditions: RBNS binding buffer: 25 mM Tris pH 7.5, 150 mM KCl, 3 mM MgCl2, 0.1% Tween, 0.5 mg/mL BSA, 1 mM DTT; 27 nM protein, 750 pM RNA pool; temperature not stated; high values mean tight binding; sequences stand for … in GGGUAAAAGCGAGGUGAA…CGGGACAAGUAUUAUGGG

Sequence | binding signal (log2 fold change)
UUUUUUUUUUGAGACGGGGUCCGUCUCCAG [tttttgagapaired] | 0.491
UUUUUUUUUUGAGAGGGUCUCCCUCUCCUG [tttttgagapaired] | 0.694
UUUUUUUUUUGAGAGGGAAUCCUUCUCCGG [tttttgagapaired] | -0.153
UUUUUUUUUUGAGAGGGCCCCCCUCUCCUA [tttttgagapaired] | 0.7
GUGUGGUGUGUUGGUCCCUAACACACUAUA [gtspaired] | -0.541
GGUGUUGGUGUUGGCUCCUAACACCGACGC [gtspaired] | -0.433
UUUUUUUUUUGAGACUGAAGCAGUCUCCUA [tttttgagapaired] | 0.0902
UUUUUUUUUUGAGAGCGAAUCGCUCUCCAG [tttttgagapaired] | 0.00878
UUUUUUUUUUGAGACGGGAUCCGUCUCCAG [tttttgagapaired] | 0.33
GGUGGUUGUGUUGGCUCCUAACACAGCUAC [gtspaired] | -0.301
GGUGGUUGUGUUGGACCCUAACACAGCCGC [gtspaired] | -0.186
UUUUUUUUUUGAGACUGCAUCAGUCUCCUA [tttttgagapaired] | 0.213
GUGGUGUGUGUUGGAUCCUAACACACAUCG [gtspaired] | -0.92
GGUGGUGGUGUUGGCACCUAACACCGCUAC [gtspaired] | -0.266
GUUGGUGGUGUUGGAAUCUAACACCGCCGA [gtspaired] | -0.414
GUGUGGUGUGUUGGCCUCUAACACACUACA [gtspaired] | -0.338
UUUUUUUUUUGAGACCGGAACGGUCUUCUG [tttttgagapaired] | 0.122
UUCUCUUCUCCUCCGCGGGAGGGGAAGGGA [ctspaired] | -0.297
GUGUGUGGUGUUGGACUCUAACACCAUACG [gtspaired] | -1.08
UUUUUUUUUUGAGAGUGGUCCAUUCUCCAG [tttttgagapaired] | 0.574
UUCUCUUCUCCUCCAUCGGAGGGGGAGGGA [ctspaired] | -0.535
UUUUUUUUUUGAGAGCGAGACGCUCUUCUA [tttttgagapaired] | 0.171
UUUUUUUUUUGAGACCGAUUCGGUCUCCUG [tttttgagapaired] | 0.422
UUUUUUUUUUGAGACGGGGACUGUCUCCAG [tttttgagapaired] | 0.99
GUUGUGUGUGUUGGCCUCUAACACACACGA [gtspaired] | -0.62
UUUUUUUUUUGAGACUGAAACAGUCUCCUG [tttttgagapaired] | 0.205
UUUUUUUUUUGAGAACGGUACGUUCUCCGG [tttttgagapaired] | 0.271
UUUUUUUUUUGAGAACGUAGCGUUCUCCAG [tttttgagapaired] | 0.275
UUCCUCUCUCCUCCGCUGGAGGGGGGAGGA [ctspaired] | -0.491
